# This is one part of the list.
# Assays:
# Experiment in all cases: glycan array binding signal (z-score within array); higher = stronger binding
# Settings in all cases: glycan notation: IUPAC condensed, linker removed
# [1] = molecular target: Fuc(a1-2)Gal
# Procedure, shortened: (§1)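 Arrays were curated from the Consortium for Functional Glycomics database, 3228 in total, and kept only where the protein sequence was available. Binding is expressed as a within-array Z-score. This score was averaged across arrays of the same protein sequence at different concentrations or buffers and across linkers, and negative values can be read as non-binding.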
# [2] = molecular target: Fuc(a1-2)Gal(b1-3)GalNAc
# Procedure, shortened: as §1
# [3] = molecular target: Fuc(a1-2)Gal(b1-3)GalNAc(a1-3)[Fuc(a1-2)]Gal(b1-4)Glc
# Procedure, shortened: as §1
# [4] = molecular target: Fuc(a1-2)Gal(b1-3)GalNAc(a1-3)[Fuc(a1-2)]Gal(b1-4)GlcNAc
# Procedure, shortened: as §1
# [5] = molecular target: Fuc(a1-2)Gal(b1-3)GalNAc(b1-3)Gal
# Procedure, shortened: as §1
# [6] = molecular target: Fuc(a1-2)Gal(b1-3)GalNAc(b1-3)Gal(a1-4)Gal(b1-4)Glc
# Procedure, shortened: as §1
# [7] = molecular target: Fuc(a1-2)Gal(b1-3)GalNAc(b1-4)[Neu5Ac(a2-3)]Gal(b1-4)Glc
# Procedure, shortened: as §1
# [8] = molecular target: Fuc(a1-2)Gal(b1-3)GlcNAc
# Procedure, shortened: as §1
# [9] = molecular target: Fuc(a1-2)Gal(b1-3)GlcNAc(b1-2)Man(a1-3)[Fuc(a1-2)Gal(b1-3)GlcNAc(b1-2)Man(a1-6)]Man(b1-4)GlcNAc(b1-4)GlcNAc
# Procedure, shortened: as §1
# [10] = molecular target: Fuc(a1-2)Gal(b1-3)GlcNAc(b1-2)Man(a1-3)[Fuc(a1-2)Gal(b1-3)GlcNAc(b1-2)Man(a1-6)]Man(b1-4)GlcNAc(b1-4)[Fuc(a1-6)]GlcNAc
# Procedure, shortened: as §1
# [11] = molecular target: Fuc(a1-2)Gal(b1-3)GlcNAc(b1-3)Gal(b1-4)Glc
# Procedure, shortened: as §1
# [12] = molecular target: Fuc(a1-2)Gal(b1-3)GlcNAc(b1-3)GalNAc
# Procedure, shortened: as §1
# [13] = molecular target: Fuc(a1-2)Gal(b1-3)GlcNAc(b1-3)[Fuc(a1-2)Gal(b1-3)GlcNAc(b1-6)]GalNAc
# Procedure, shortened: as §1
# [14] = molecular target: Fuc(a1-2)Gal(b1-3)GlcNAc(b1-3)[Gal(b1-4)GlcNAc(b1-6)]Gal(b1-4)Glc
# Procedure, shortened: as §1
# [15] = molecular target: Fuc(a1-2)Gal(b1-3)GlcNAc(b1-3)[Neu5Ac(a2-6)Gal(b1-4)GlcNAc(b1-6)]Gal(b1-4)Glc
# Procedure, shortened: as §1
# [16] = molecular target: Fuc(a1-2)Gal(b1-3)GlcNAc6S
# Procedure, shortened: as §1
# [17] = molecular target: Fuc(a1-2)Gal(b1-3)[Fuc(a1-4)]GlcNAc
# Procedure, shortened: as §1
# [18] = molecular target: Fuc(a1-2)Gal(b1-3)[Fuc(a1-4)]GlcNAc(b1-2)Man(a1-3)[Fuc(a1-2)Gal(b1-3)[Fuc(a1-4)]GlcNAc(b1-2)Man(a1-3)]Man(b1-4)GlcNAc(b1-4)GlcNAc
# Procedure, shortened: as §1
# [19] = molecular target: Fuc(a1-2)Gal(b1-3)[Fuc(a1-4)]GlcNAc(b1-2)Man(a1-3)[Fuc(a1-2)Gal(b1-3)[Fuc(a1-4)]GlcNAc(b1-2)Man(a1-6)]Man(b1-4)GlcNAc(b1-4)[Fuc(a1-6)]GlcNAc(b1-4)[Fuc(a1-6)]GlcNAc
# Procedure, shortened: as §1
# [20] = molecular target: Fuc(a1-2)Gal(b1-3)[Fuc(a1-4)]GlcNAc(b1-3)[Fuc(a1-3)[Gal(b1-4)]GlcNAc(b1-6)]Gal(b1-4)Glc
# Procedure, shortened: as §1
# [21] = molecular target: Fuc(a1-2)Gal(b1-3)[Fuc(a1-4)]GlcNAc(b1-3)[Gal(b1-4)GlcNAc(b1-6)]Gal(b1-4)Glc
# Procedure, shortened: as §1
# [22] = molecular target: Fuc(a1-2)Gal(b1-4)Fuc(a1-3)]GlcNAc(b1-2)Man(a1-3)[Fuc(a1-2)Gal(b1-4)[Fuc(a1-3)]GlcNAc(b1-2)Man(a1-6)]Man(b1-4)GlcNAc(b1-4)GlcNAc
# Procedure, shortened: as §1
# [23] = molecular target: Fuc(a1-2)Gal(b1-4)Glc
# Procedure, shortened: as §1
# [24] = molecular target: Fuc(a1-2)Gal(b1-4)Glc6S
# Procedure, shortened: as §1
# [25] = molecular target: Fuc(a1-2)Gal(b1-4)GlcNAc
# Procedure, shortened: as §1
# [26] = molecular target: Fuc(a1-2)Gal(b1-4)GlcNAc(b1-2)Man
# Procedure, shortened: as §1
# [27] = molecular target: Fuc(a1-2)Gal(b1-4)GlcNAc(b1-2)Man(a1-3)[Fuc(a1-2)Gal(b1-4)GlcNAc(b1-2)Man(a1-6)]Man(b1-4)GlcNAc(b1-4)GlcNAc
# Procedure, shortened: as §1
# [28] = molecular target: Fuc(a1-2)Gal(b1-4)GlcNAc(b1-2)Man(a1-3)[Fuc(a1-2)Gal(b1-4)GlcNAc(b1-2)Man(a1-6)]Man(b1-4)GlcNAc(b1-4)[Fuc(a1-6)]GlcNAc
# Procedure, shortened: as §1
# [29] = molecular target: Fuc(a1-2)Gal(b1-4)GlcNAc(b1-2)[Fuc(a1-2)Gal(b1-4)GlcNAc(b1-4)]Man(a1-3)[Fuc(a1-2)Gal(b1-4)GlcNAc(b1-2)Man(a1-6)]Man(b1-4)GlcNAc(b1-4)GlcNAc
# Procedure, shortened: as §1
# [30] = molecular target: Fuc(a1-2)Gal(b1-4)GlcNAc(b1-3)Gal(b1-4)GlcNAc
# Procedure, shortened: as §1
# [31] = molecular target: Fuc(a1-2)Gal(b1-4)GlcNAc(b1-3)Gal(b1-4)GlcNAc(b1-2)Man(a1-3)[Fuc(a1-2)Gal(b1-4)GlcNAc(b1-3)Gal(b1-4)GlcNAc(b1-2)Man(a1-6)]Man(b1-4)GlcNAc(b1-4)GlcNAc
# Procedure, shortened: as §1
# [32] = molecular target: Fuc(a1-2)Gal(b1-4)GlcNAc(b1-3)Gal(b1-4)GlcNAc(b1-3)Gal(b1-4)GlcNAc
# Procedure, shortened: as §1
# [33] = molecular target: Fuc(a1-2)Gal(b1-4)GlcNAc(b1-3)GalNAc
# Procedure, shortened: as §1
# [34] = molecular target: Fuc(a1-2)Gal(b1-4)GlcNAc(b1-3)[Fuc(a1-2)Gal(b1-4)GlcNAc(b1-6)]GalNAc
# Procedure, shortened: as §1
# [35] = molecular target: Fuc(a1-2)Gal(b1-4)GlcNAc(b1-3)[Fuc(a1-3)[Gal(b1-4)]GlcNAc(b1-6)]Gal(b1-4)Glc
# Procedure, shortened: as §1
# [36] = molecular target: Fuc(a1-2)Gal(b1-4)GlcNAc(b1-6)GalNAc
# Procedure, shortened: as §1
# [37] = molecular target: Fuc(a1-2)Gal(b1-4)GlcNAc6S
# Procedure, shortened: as §1
# [38] = molecular target: Fuc(a1-2)Gal(b1-4)[Fuc(a1-3)]GlcNAc
# Procedure, shortened: as §1
# [39] = molecular target: Fuc(a1-2)Gal(b1-4)[Fuc(a1-3)]GlcNAc(b1-2)Man(a1-3)[Fuc(a1-2)Gal(b1-4)[Fuc(a1-3)]GlcNAc(b1-2)Man(a1-6)]Man(b1-4)GlcNAc(b1-4)[Fuc(a1-6)]GlcNAc
# Procedure, shortened: as §1
# [40] = molecular target: Fuc(a1-2)Gal(b1-4)[Fuc(a1-3)]GlcNAc(b1-2)[Fuc(a1-2)Gal(b1-4)[Fuc(a1-3)]GlcNAc(b1-4)]Man(a1-3)[Fuc(a1-2)Gal(b1-4)[Fuc(a1-3)]GlcNAc(b1-2)Man(a1-6)]Man(b1-4)GlcNAc(b1-4)GlcNAc
# Procedure, shortened: as §1
# [41] = molecular target: Fuc(a1-2)Gal(b1-4)[Fuc(a1-3)]GlcNAc(b1-3)Gal(b1-4)[Fuc(a1-3)]GlcNAc
# Procedure, shortened: as §1
# [42] = molecular target: Fuc(a1-2)Gal(b1-4)[Fuc(a1-3)]GlcNAc(b1-3)Gal(b1-4)[Fuc(a1-3)]GlcNAc(b1-3)Gal(b1-4)[Fuc(a1-3)]GlcNAc
# Procedure, shortened: as §1
# [43] = molecular target: Fuc(a1-2)Gal(b1-4)[Fuc(a1-3)]GlcNAc(b1-3)GalNAc
# Procedure, shortened: as §1
# [44] = molecular target: Fuc(a1-2)Gal(b1-4)[Fuc(a1-3)]GlcNAc(b1-3)[Neu5Ac(a2-6)Gal(b1-4)GlcNAc(b1-6)]Gal(b1-4)Glc
# Procedure, shortened: as §1
# [45] = molecular target: Fuc(a1-2)Gal3S(b1-4)GlcNAc
# Procedure, shortened: as §1
binder,measurement,setting,value
"Epa6 (Candida glabrata), Q6DTM7_CANGB (protein) MGSSHHHHHHSSGLVPRGSHMKDDYSSSLSNNNLGWTDPTEFPLGCSPNVTTPKNGLSMELYSYDYLKSGSNPCWDAAYLDPNYPRTGYKSHRLLAKVENVAGNINFYYHAPMGCTSLFDTLPQAYNYRTPLTMTNFTMLLYGYFKPKVTGYHTFTISADDLLFVNFGAGNAFDCCKRESSADDFGNYQAYAVWGSQTAKDDLTVHLDAGLYYPIRIFFNNRDNDGALSLTLKTESDPNPVIDFSDYFYSFDDTKDGCPGLVSYDTS",glycan array binding signal (z-score),[1],-0.308
same,glycan array binding signal (z-score),[2],-0.296
same,glycan array binding signal (z-score),[3],-0.322
same,glycan array binding signal (z-score),[4],0.329
same,glycan array binding signal (z-score),[5],0.066
same,glycan array binding signal (z-score),[6],-0.243
same,glycan array binding signal (z-score),[7],-0.155
same,glycan array binding signal (z-score),[8],-0.259
same,glycan array binding signal (z-score),[9],-0.316
same,glycan array binding signal (z-score),[10],-0.32
same,glycan array binding signal (z-score),[11],-0.319
same,glycan array binding signal (z-score),[12],-0.299
same,glycan array binding signal (z-score),[13],-0.194
same,glycan array binding signal (z-score),[14],-0.184
same,glycan array binding signal (z-score),[15],-0.287
same,glycan array binding signal (z-score),[16],-0.274
same,glycan array binding signal (z-score),[17],-0.302
same,glycan array binding signal (z-score),[18],-0.229
same,glycan array binding signal (z-score),[19],-0.239
same,glycan array binding signal (z-score),[20],-0.282
same,glycan array binding signal (z-score),[21],-0.277
same,glycan array binding signal (z-score),[22],-0.112
same,glycan array binding signal (z-score),[23],-0.123
same,glycan array binding signal (z-score),[24],-0.267
same,glycan array binding signal (z-score),[25],-0.322
same,glycan array binding signal (z-score),[26],-0.301
same,glycan array binding signal (z-score),[27],-0.269
same,glycan array binding signal (z-score),[28],-0.331
same,glycan array binding signal (z-score),[29],-0.318
same,glycan array binding signal (z-score),[30],-0.305
same,glycan array binding signal (z-score),[31],-0.242
same,glycan array binding signal (z-score),[32],-0.301
same,glycan array binding signal (z-score),[33],1.78
same,glycan array binding signal (z-score),[34],-0.315
same,glycan array binding signal (z-score),[35],-0.279
same,glycan array binding signal (z-score),[36],-0.062
same,glycan array binding signal (z-score),[37],-0.268
same,glycan array binding signal (z-score),[38],-0.337
same,glycan array binding signal (z-score),[39],-0.257
same,glycan array binding signal (z-score),[40],-0.215
same,glycan array binding signal (z-score),[41],-0.275
same,glycan array binding signal (z-score),[42],-0.321
same,glycan array binding signal (z-score),[43],0.022
same,glycan array binding signal (z-score),[44],-0.223
same,glycan array binding signal (z-score),[45],-0.298

# From the supplement of paper PMC8728848
